Laboratory results published in paper PMC6894885.
No constants are given. Whether binding was seen depends on the method and setting. In cells and extracts the contact can be indirect. Some results given as binding are weak or reduced against the parent protein; the word gives no strength.

Sequences of proteins named here, by UniProt entry; tags and fusion partners are left off. A change or cut given only in a name is not applied to a line headed by its entry. A line that says so, or that is headed by a name, gives the form on record, which may keep a tag or linker. Residues count along the entry.
UniProt F5HCV3: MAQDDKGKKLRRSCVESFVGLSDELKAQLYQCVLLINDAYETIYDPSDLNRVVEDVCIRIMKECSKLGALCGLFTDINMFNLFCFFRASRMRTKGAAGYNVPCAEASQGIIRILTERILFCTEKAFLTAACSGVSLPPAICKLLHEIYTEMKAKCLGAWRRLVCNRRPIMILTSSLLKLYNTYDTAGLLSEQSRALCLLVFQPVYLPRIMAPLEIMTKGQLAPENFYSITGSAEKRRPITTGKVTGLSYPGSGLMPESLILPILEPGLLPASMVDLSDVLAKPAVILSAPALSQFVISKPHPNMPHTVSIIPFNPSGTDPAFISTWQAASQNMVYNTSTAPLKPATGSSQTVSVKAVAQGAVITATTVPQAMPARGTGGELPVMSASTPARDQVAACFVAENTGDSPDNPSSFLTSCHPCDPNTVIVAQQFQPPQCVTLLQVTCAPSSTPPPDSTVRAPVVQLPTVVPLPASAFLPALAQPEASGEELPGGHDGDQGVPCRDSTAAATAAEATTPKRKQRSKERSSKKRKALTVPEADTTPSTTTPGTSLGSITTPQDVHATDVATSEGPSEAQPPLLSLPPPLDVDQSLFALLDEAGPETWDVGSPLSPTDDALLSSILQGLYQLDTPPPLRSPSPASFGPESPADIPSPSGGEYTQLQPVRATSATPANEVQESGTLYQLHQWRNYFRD
Flag-tagged RTA truncation C544-691 (Kaposi's sarcoma-associated herpesvirus (KSHV)): residues 544-691 of F5HCV3
UniProt Q15596: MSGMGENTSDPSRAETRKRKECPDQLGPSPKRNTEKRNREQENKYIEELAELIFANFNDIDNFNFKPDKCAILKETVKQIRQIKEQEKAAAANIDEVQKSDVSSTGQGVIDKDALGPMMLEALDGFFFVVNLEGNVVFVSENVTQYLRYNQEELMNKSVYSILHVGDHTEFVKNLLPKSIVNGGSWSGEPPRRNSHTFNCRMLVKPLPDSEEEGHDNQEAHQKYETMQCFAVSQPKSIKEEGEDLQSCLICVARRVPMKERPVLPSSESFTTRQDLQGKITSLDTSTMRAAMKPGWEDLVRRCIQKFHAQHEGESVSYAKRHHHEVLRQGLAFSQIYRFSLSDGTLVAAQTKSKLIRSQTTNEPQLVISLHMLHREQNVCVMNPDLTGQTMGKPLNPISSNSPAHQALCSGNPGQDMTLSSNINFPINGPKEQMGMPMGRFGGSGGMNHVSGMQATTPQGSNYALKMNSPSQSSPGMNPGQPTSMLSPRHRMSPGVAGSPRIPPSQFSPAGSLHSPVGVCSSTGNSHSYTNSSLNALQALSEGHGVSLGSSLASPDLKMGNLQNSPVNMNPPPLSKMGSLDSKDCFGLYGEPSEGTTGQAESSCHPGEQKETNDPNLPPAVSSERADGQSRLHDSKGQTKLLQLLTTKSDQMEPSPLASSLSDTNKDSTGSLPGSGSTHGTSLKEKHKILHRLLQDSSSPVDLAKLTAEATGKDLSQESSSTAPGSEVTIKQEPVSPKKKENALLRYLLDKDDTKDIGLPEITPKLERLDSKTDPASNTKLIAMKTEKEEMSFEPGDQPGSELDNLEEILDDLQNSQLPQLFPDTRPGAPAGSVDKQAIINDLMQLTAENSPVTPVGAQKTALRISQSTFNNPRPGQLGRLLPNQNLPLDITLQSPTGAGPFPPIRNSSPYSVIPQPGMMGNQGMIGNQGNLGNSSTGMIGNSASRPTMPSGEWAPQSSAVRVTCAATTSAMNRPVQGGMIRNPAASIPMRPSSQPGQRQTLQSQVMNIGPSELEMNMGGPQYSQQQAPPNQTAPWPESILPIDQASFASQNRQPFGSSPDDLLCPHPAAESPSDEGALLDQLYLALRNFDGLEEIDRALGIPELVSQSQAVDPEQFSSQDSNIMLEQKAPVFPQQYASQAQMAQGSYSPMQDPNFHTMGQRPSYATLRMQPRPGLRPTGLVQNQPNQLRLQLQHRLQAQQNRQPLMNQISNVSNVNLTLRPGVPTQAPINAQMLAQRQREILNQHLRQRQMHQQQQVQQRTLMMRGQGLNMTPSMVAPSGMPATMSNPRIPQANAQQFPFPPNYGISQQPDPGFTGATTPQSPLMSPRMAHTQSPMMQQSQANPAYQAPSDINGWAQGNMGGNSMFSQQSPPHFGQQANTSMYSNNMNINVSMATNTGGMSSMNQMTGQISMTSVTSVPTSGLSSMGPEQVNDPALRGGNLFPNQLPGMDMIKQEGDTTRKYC
Flag-tagged NCOA2 truncation N624: residues 1-624 of Q15596
Flag-tagged NCOA2 truncation 624C: residues 624-1464 of Q15596

How the values were obtained:
Assay in all cases: co-IP
[1] = molecular target: Flag-tagged replication and transcription activator (RTA), full length (Kaposi's sarcoma-associated herpesvirus (KSHV)) (UniProt F5HCV3)
[2] = molecular target: Flag-tagged RTA truncation C544-691 (Kaposi's sarcoma-associated herpesvirus (KSHV)) (UniProt F5HCV3)
[3] = molecular target: Flag-tagged NCOA2 truncation N624 (human) (UniProt Q15596)
[4] = molecular target: Flag-tagged NCOA2 truncation 624C (human) (UniProt Q15596)

| Substance | binding [1] | binding [2] | binding [3] | binding [4] |
| --- | --- | --- | --- | --- |
| Myc-tagged NCOA2 (from UniProt Q15596 1-1464) | binds |  |  |  |
| Myc-tagged NCOA2 truncation N624 (from UniProt Q15596 1-624) (domain or fragment) | binds |  |  |  |
| Myc-tagged NCOA2 truncation 624C (from UniProt Q15596 624-1464) (domain or fragment) | no binding |  |  |  |
| HA-tagged NCOA2, full length (from UniProt Q15596 1-1464) | binds | binds |  |  |
| HA-tagged RTA, full length (from UniProt F5HCV3 1-691) |  |  | binds | no binding |
